{"source": "PubChem BioAssay AID1345083", "about": "(National Center for Advancing Translational Sciences (NCATS), 2018)", "note": "The campaign covered roughly 94,000 compounds. About 6,200 (6.6%) were called active. This list was built around the results that the source calls inconclusive (neither active nor inactive); the mix of calls is not that of the screen. Calls come from the whole dose curve; as a rule, active = well fitted inhibition curve with a large enough effect; inconclusive = small, poorly fitted or top-dose-only effect; inactive = flat fitted curve, though single readings scatter. A potency beside an inconclusive call is a rough fit, not a confirmed value. Potency is the fitted concentration of half-maximal effect; tags give direction and shape of the fitted curve.", "data": [{"assay": "Cytotoxic Profiling in HEK 293 Cell Line of Diverse Libraries Using Quantitative High-Throughput Screening; note: nearly all actives have a fitted effect of over 60% in size", "conditions": "HEK 293 viability, ATP luminescence (CellTiter-Glo), 48-72 h; series mostly up to 115 µM", "how_it_was_run": "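Cytotoxicity was scored by loss of ATP-coupled luminescence (CellTiter-Glo) in HEK 293 cells. Compound treatment ran 48 or 72 hr at 37 degree Celsius, 5% CO2, 95% humidity.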", "values": [{"smiles": "Cc1cccc(-c2cccc(CN3CCCC(C(=O)N4CCN(C)CC4)C3)c2)c1", "note": "(stereo not given)", "Potency": "active: 25.1 µM"}, {"smiles": "COc1ccc(CNC(=O)c2ccc3nnc(C4CCOCC4)n3c2)cc1", "Potency": "inactive"}, {"smiles": "CCc1cc(=O)n(CC(=O)Nc2ccc(OC)c(OC)c2)c(-c2cccc(F)c2)n1", "Potency": "inconclusive: 70.8 µM [inhibitor, partial curve, poor fit]"}, {"smiles": "COc1ccc(CN2CC[C@H](c3nc4c(C(N)=O)cccc4[nH]3)C2)cc1", "Potency": "inconclusive: 39.8 µM [inhibitor, partial curve, poor fit]"}, {"smiles": "C#CCNC(=O)c1nc(-c2ccc(Cl)cc2Cl)c2ccccn12", "Potency": "inconclusive: 89.1 µM [inhibitor, partial curve]"}, {"smiles": "Cn1nc(C(=O)NC2CCN(c3cc(-c4ccccc4)[nH]n3)CC2)c2ccccc21", "Potency": "inconclusive: 100 µM [inhibitor, partial curve, poor fit]"}, {"smiles": "Cc1ccc(-n2nc(C)c([C@H]3C=C[C@@H](OC(=O)Nc4cccc(C(F)(F)F)c4)C3)c2C)cc1Cl", "Potency": "active: 31.6 µM"}, {"smiles": "CN(C)C[C@@H]1CN(Cc2ccncc2)C[C@H]1NC(=O)c1ccc(F)cc1", "Potency": "inconclusive: 79.4 µM [inhibitor, partial curve, poor fit]"}, {"smiles": "Cc1ccc(-c2cn[nH]c2C2CCCN(C(=O)c3cnc(C)s3)C2)cc1", "note": "(stereo not given)", "Potency": "inconclusive: 63.1 µM [inhibitor, partial curve, poor fit]"}, {"smiles": "Cc1cn2nc(C(=O)NCc3ccccc3C)cc2c(N(C)Cc2ccccc2)n1", "Potency": "inconclusive: 44.7 µM [inhibitor, partial curve]"}, {"smiles": "O=C(c1ccccc1)N1CC(Oc2ccc3c(c2)OCO3)C1", "Potency": "inconclusive: 126 µM [inhibitor, single point]"}, {"smiles": "O=C(C1CC1)N1CCCCCC1c1nnc(-c2ccccc2)o1", "note": "(stereo not given)", "Potency": "inconclusive: 89.1 µM [inhibitor, single point]"}, {"smiles": "CN(Cc1ccccc1)c1ncccc1CNC(=O)c1ccnn1C", "Potency": "inconclusive: 44.7 µM [inhibitor, partial curve, poor fit]"}, {"smiles": "COc1ccc(C(=O)N2CCC(c3n[nH]c(=O)n3-c3ccc(C)cc3)CC2)cc1OC", "Potency": "inactive"}, {"smiles": "CN(C)c1ccc(C(=O)N2CC[C@@H](CC(=O)O)[C@@H](CCN3C[C@@H]4C[C@H](C3)c3cccc(=O)n3C4)C2)cc1", "Potency": "inactive"}, {"smiles": "CCc1cccc(NC(=O)N2CCc3c(nc(-c4ccc(OC)cc4)[nH]c3=O)C2)c1", "Potency": "inconclusive: 44.7 µM [inhibitor, partial curve, poor fit]"}, {"smiles": "COCCN1C(=O)CC[C@]2(C(=O)NCc3ccc(OC)cc3OC)CCCC[C@@H]12", "Potency": "inconclusive: 100 µM [inhibitor, single point]"}, {"smiles": "O=Cc1cccc(-c2ccc(C(=O)O)o2)c1", "Potency": "inactive"}, {"smiles": "Cc1noc(C)c1[S+](=O)([O-])N1CCC(c2nn(-c3ccccc3)c(=O)[nH]2)CC1", "Potency": "inconclusive: 56.2 µM [inhibitor, partial curve, poor fit]"}, {"smiles": "CC(C)CNC(=O)c1nc2cccnc2n(C2CC2)c1=O", "Potency": "inactive"}, {"smiles": "COc1ccc2c(c1)C(CN1CCN(CC(=O)OC(C)(C)C)CC1)=CC(C)(C)CO2", "Potency": "inconclusive: 70.8 µM [inhibitor, partial curve]"}, {"smiles": "COc1cc(OC)cc(C(=O)N2CCC3(CC2)NC(=O)N(c2cccc(Cl)c2)N3)c1", "Potency": "inconclusive: 79.4 µM [inhibitor, single point]"}, {"smiles": "COc1ccc(C(=O)N[C@@H]2CCC[C@@H]2C(=O)N(C)C)cn1", "Potency": "inactive"}, {"smiles": "CC1CCN(C(=O)c2cn3ccnc(-c4ccc(F)cc4)c3n2)CC1", "Potency": "inconclusive: 89.1 µM [inhibitor, partial curve, poor fit]"}, {"smiles": "NC(=O)c1cccc(-c2ncc3c(n2)OCCN(Cc2ccc(F)cc2F)C3=O)c1", "Potency": "inconclusive: 100 µM [inhibitor, partial curve, poor fit]"}, {"smiles": "CCOc1ccccc1C(=O)N1CCC2(CC1)CN(c1ncccn1)CC2CO", "note": "(stereo not given)", "Potency": "inactive"}, {"smiles": "Cc1nc2cnccn2c1C(=O)NCc1cccc(C(F)(F)F)c1", "Potency": "inconclusive: 89.1 µM [inhibitor, partial curve, poor fit]"}, {"smiles": "O=C1CCN(C(=O)C2CCN(C(=O)c3cnccn3)CC2)CCCCCCN1", "Potency": "inactive"}, {"smiles": "CCc1cccc(NC(=O)c2cc3n(n2)CC(c2ccc(Cl)cc2)OC3)c1", "note": "(stereo not given)", "Potency": "inconclusive: 79.4 µM [inhibitor, partial curve]"}, {"smiles": "O=C(NC1CCN(c2ccc3nnc(-c4ccccc4)n3n2)CC1)c1ccccc1F", "Potency": "inconclusive: 20 µM [inhibitor, full curve, poor fit]"}, {"smiles": "COc1ccc(-c2[nH]nc3ncc(-c4cccnc4)nc23)cc1F", "Potency": "inconclusive: 11.2 µM [inhibitor, full curve, poor fit]"}, {"smiles": "Cc1ccc(-c2cc(C(=O)NCc3cccs3)c3cnn(C)c3n2)c(C)c1", "Potency": "inconclusive: 50.1 µM [inhibitor, partial curve, poor fit]"}, {"smiles": "CCOC(=O)CC1CCCCN1S(=O)(=O)c1cc(F)ccc1F", "note": "(stereo not given)", "Potency": "inactive"}, {"smiles": "O=C(Cc1cccc(Cl)c1)NC1CCN(c2cc(-c3cccs3)[nH]n2)C1", "note": "(stereo not given)", "Potency": "inconclusive: 50.1 µM [inhibitor, partial curve, poor fit]"}, {"smiles": "COc1ccc(-c2nc(N3CCOCC3)cc3c2CN(CC2CC2)C3=O)cn1", "Potency": "inconclusive: 100 µM [inhibitor, partial curve]"}, {"smiles": "CCc1ccc(CNC(=O)Cn2c(C)cc3nc4n(c(=O)c32)CCCC4)cc1", "Potency": "inconclusive: 50.1 µM [inhibitor, partial curve, poor fit]"}, {"smiles": "CCn1nccc1C(=O)N1CCC2(CC1)CN(C(C)=O)CC2COC", "note": "(stereo not given)", "Potency": "inactive"}, {"smiles": "COCCn1c(=O)c(C(=O)NC2CC2)nc2cccnc21", "Potency": "inactive"}, {"smiles": "CCC(=O)N1Cc2ccccc2CC2(CCCN2Cc2ccccc2)C1", "note": "(stereo not given)", "Potency": "inconclusive: 89.1 µM [inhibitor, partial curve, poor fit]"}, {"smiles": "O=C(NC1CC1)c1cc2c(=O)[nH]c(-c3ccccc3)cn2n1", "Potency": "inconclusive: 11.2 µM [inhibitor, full curve]"}, {"smiles": "COc1ccc(CC(=O)NC2CCc3nnc(C4CC4)n3CC2)cc1", "note": "(stereo not given)", "Potency": "inactive"}, {"smiles": "CC1CCC(NC(=O)C2CCN(C(=O)c3ncn4c3COC(c3ccc(Cl)cc3)C4)CC2)CC1", "note": "(stereo not given)", "Potency": "inactive"}, {"smiles": "CN1C(=O)CCC2(CNC(=O)c3ccncc3)CCCC=C12", "note": "(stereo not given)", "Potency": "inactive"}, {"smiles": "CN(Cc1ccccc1)Cc1cc(CC2(NCc3cccs3)COC2)no1", "Potency": "inconclusive: 100 µM [inhibitor, partial curve, poor fit]"}, {"smiles": "Cn1ncc2c(C(=O)Nc3ccccc3F)cc(-c3ccccc3C(F)(F)F)nc21", "Potency": "inactive"}, {"smiles": "CN(C)c1ccc(CN2CCCC(COc3ccccc3C(=O)N3CCCC3)C2)cc1", "note": "(stereo not given)", "Potency": "inconclusive: 79.4 µM [inhibitor, single point]"}, {"smiles": "O[C@H]1CC[C@@H](Cc2cc(CN3CCOCC3)on2)O[C@@H]1CNCc1ccccc1", "Potency": "inactive"}, {"smiles": "COC(=O)CNC(=O)c1nc2cccnc2n(Cc2ccccc2)c1=O", "Potency": "inactive"}, {"smiles": "COc1cccc(S(=O)(=O)N2CCC([C@H]3[C@@H](OC)C(=O)N3C(C)C)CC2)c1", "Potency": "inconclusive: 56.2 µM [inhibitor, partial curve, poor fit]"}, {"smiles": "COc1cccc(-c2cc(C(=O)NCCc3ccccn3)c3cnn(C)c3n2)c1", "Potency": "inconclusive: 50.1 µM [inhibitor, partial curve, poor fit]"}, {"smiles": "O=C1CC(c2ccccc2)N(Cc2ccc(F)c(F)c2)CCCCCN1", "note": "(stereo not given)", "Potency": "inconclusive: 28.2 µM [inhibitor, partial curve, poor fit]"}, {"smiles": "CC(=O)NC1CCN(Cc2cn(-c3ccc(C)cc3)nc2-c2cccc(C)c2)C1", "note": "(stereo not given)", "Potency": "inconclusive: 50.1 µM [inhibitor, partial curve, poor fit]"}, {"smiles": "CC(C)c1noc(C2CCCN2C(=O)c2cc(-c3cccs3)n(C)n2)n1", "note": "(stereo not given)", "Potency": "inactive"}, {"smiles": "Cc1cc(C)c(S(=O)(=O)N2CCC(C)(c3noc(C)n3)CC2)c(C)c1", "Potency": "inconclusive: 56.2 µM [inhibitor, partial curve, poor fit]"}, {"smiles": "O=C(c1ccccc1)N1CCC(C(=O)N2CCC(c3nc4ncccc4[nH]3)C2)CC1", "note": "(stereo not given)", "Potency": "inactive"}, {"smiles": "CCN(CC)C(=O)N1CCC(c2noc(-c3ccccc3)n2)C1", "note": "(stereo not given)", "Potency": "inconclusive: 56.2 µM [inhibitor, partial curve, poor fit]"}, {"smiles": "Cc1ncc2n1C(=O)N(C1CCN(Cc3ccncc3)CC1)C2", "Potency": "inconclusive: 112 µM [inhibitor, partial curve, poor fit]"}, {"smiles": "COc1ccc(N2CCN(c3nc(C(=O)NCc4cccc(C)c4)cs3)CC2)cc1", "Potency": "active: 17.8 µM"}, {"smiles": "COc1ccc(Cl)cc1-c1ccc2c(c1)C(=O)N1CCN(C(=O)c3ccc(N(C)C)cc3)C[C@@H]1C(=O)N2", "Potency": "inconclusive: 17.8 µM [inhibitor, full curve, poor fit]"}, {"smiles": "Cc1nn(-c2ccccc2)c2c1C(C1CC1)N(C1CN(C(=O)C(C)(C)C)C1)C2=O", "note": "(stereo not given)", "Potency": "inconclusive: 56.2 µM [inhibitor, partial curve, poor fit]"}, {"smiles": "O=C(C1CC1)N1CCN2C(=O)NC[C@H]2C1", "Potency": "inactive"}, {"smiles": "CCn1cc(CN2CCC(N3CC(OCC4CC4)C34CCCCC4)CC2)cn1", "note": "(stereo not given)", "Potency": "inconclusive: 44.7 µM [inhibitor, partial curve, poor fit]"}, {"smiles": "COc1ccc(OC)c(S(=O)(=O)N[C@H]2CO[C@H]3[C@@H]2OC[C@H]3OC(=O)Nc2ccc(C(C)=O)cc2)c1", "Potency": "inactive"}, {"smiles": "Cc1ccccc1C(=O)N1CCN(Cc2ccccc2-c2ccccc2F)CC1", "Potency": "inconclusive: 50.1 µM [inhibitor, partial curve, poor fit]"}, {"smiles": "COc1ccc(NC(=O)C2CCc3nnc(CNC(C)=O)n32)cc1", "note": "(stereo not given)", "Potency": "inactive"}]}]}
